32 sequences from paper PMC12820563 can be followed below.

The list shows a part of the results. The list includes weakly bound sequences.

For the test, the target named is T1, MBP-FoxP3dN (UniProt Q99JB6).
T1 sequence: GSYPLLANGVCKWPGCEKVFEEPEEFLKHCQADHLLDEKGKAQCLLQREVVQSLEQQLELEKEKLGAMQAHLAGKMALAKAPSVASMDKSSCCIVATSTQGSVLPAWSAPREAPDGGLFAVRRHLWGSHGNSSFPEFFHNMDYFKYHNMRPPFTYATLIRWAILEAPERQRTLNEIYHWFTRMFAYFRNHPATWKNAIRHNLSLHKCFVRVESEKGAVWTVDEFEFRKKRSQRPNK
Nature of the test: PD-seq (MBP pull-down with sequencing). The following applies: 20 mM Tris-HCl pH 7.5, 100 mM NaCl, 1.5 mM MgCl2, 0.4 uM protein, 0.1 uM dsDNA library, 30 min, room temperature, amylose pull-down; high values mean tight binding; double strand, one strand shown.
On to “GATGATTGTTCTCCCAGCTGATGAATTGGGGCATTCGAGTAAACAAATTTTCCTAATCTTTCTGTTCAAGCGCCATCTAC”, for which the binding signal (RPM ratio (pull-down/input)) worked out at 4.3.

On to “GATGATTGTTCTCCCAGCTGATGAATTGCCACGTTCGAGTAAACAAATTTTCCTAATCTTTCTGTTCAAGCGCCATCTAC”, for which the binding signal (RPM ratio (pull-down/input)) amounted to 0.841.

Turning to “GATGATTGTTCTCCCAGCTGATGAATTACACTTTTCGAGTAAACAAATTTTCCTAATCTTTCTGTTCAAGCGCCATCTAC”, the binding signal (RPM ratio (pull-down/input)) stood at 0.622.

Turning to “GATGATTGTTCTCCCAGCTGATGAATTTTGGGTCTCGAGTAAACAAATTTTCCTAATCTTTCTGTTCAAGCGCCATCTAC”, the binding signal (RPM ratio (pull-down/input)) was found to be 0.715.

Consider “GATGATTGTTCTCCCAGCTGATGAATTACCGGCGTCGAGTAAACAAATTTTCCTAATCTTTCTGTTCAAGCGCCATCTAC”, for which the binding signal (RPM ratio (pull-down/input)) turned out to be 0.452.

For the sequence “GATGATTGTTCTCCCAGCTGATGAATTGGGCATGTCGAGTAAACAAATTTTCCTAATCTTTCTGTTCAAGCGCCATCTAC”, the binding signal (RPM ratio (pull-down/input)) came to 3.93.

Take “GATGATTGTTCTCCCAGCTGATGAATTGTCGACTTCGAGTAAACAAATTTTCCTAATCTTTCTGTTCAAGCGCCATCTAC”: the binding signal (RPM ratio (pull-down/input)) stood at 0.569.

Consider “GATGATTGTTCTCCCAGCTGATGAATTACCTGAATCGAGTAAACAAATTTTCCTAATCTTTCTGTTCAAGCGCCATCTAC”, for which the binding signal (RPM ratio (pull-down/input)) was found to be 0.246.

On to “GATGATTGTTCTCCCAGCTGATGAATTCGTGATATCGAGTAAACAAATTTTCCTAATCTTTCTGTTCAAGCGCCATCTAC”, for which the binding signal (RPM ratio (pull-down/input)) was determined as 0.591.

On to “GATGATTGTTCTCCCAGCTGATGAATTCACACTCTCGAGTAAACAAATTTTCCTAATCTTTCTGTTCAAGCGCCATCTAC”, for which the binding signal (RPM ratio (pull-down/input)) came to 0.447.

For “GATGATTGTTCTCCCAGCTGATGAATTAATGGTATCGAGTAAACAAATTTTCCTAATCTTTCTGTTCAAGCGCCATCTAC”, the binding signal (RPM ratio (pull-down/input)) was found to be 0.813.

Regarding “GATGATTGTTCTCCCAGCTGATGAATTAGCTTGATCGAGTAAACAAATTTTCCTAATCTTTCTGTTCAAGCGCCATCTAC”, the binding signal (RPM ratio (pull-down/input)) is 0.764.

Turning to “GATGATTGTTCTCCCAGCTGATGAATTCCACCAATCGAGTAAACAAATTTTCCTAATCTTTCTGTTCAAGCGCCATCTAC”, the binding signal (RPM ratio (pull-down/input)) was found to be 0.304.

For “GATGATTGTTCTCCCAGCTGATGAATTATACTTCTCGAGTAAACAAATTTTCCTAATCTTTCTGTTCAAGCGCCATCTAC”, the binding signal (RPM ratio (pull-down/input)) worked out at 0.492.

With “GATGATTGTTCTCCCAGCTGATGAATTTGATCTATCGAGTAAACAAATTTTCCTAATCTTTCTGTTCAAGCGCCATCTAC”, the binding signal (RPM ratio (pull-down/input)) stood at 0.475.

As to “GATGATTGTTCTCCCAGCTGATGAATTGGTAAATTCGAGTAAACAAATTTTCCTAATCTTTCTGTTCAAGCGCCATCTAC”, the binding signal (RPM ratio (pull-down/input)) turned out to be 0.569.

In the case of “GATGATTGTTCTCCCAGCTGATGAATTCGGGTATTCGAGTAAACAAATTTTCCTAATCTTTCTGTTCAAGCGCCATCTAC”, the binding signal (RPM ratio (pull-down/input)) came out at 0.921.

For “GATGATTGTTCTCCCAGCTGATGAATTGCAGCGTTCGAGTAAACAAATTTTCCTAATCTTTCTGTTCAAGCGCCATCTAC”, the binding signal (RPM ratio (pull-down/input)) came out at 1.6.

“GATGATTGTTCTCCCAGCTGATGAATTGAATGACTCGAGTAAACAAATTTTCCTAATCTTTCTGTTCAAGCGCCATCTAC”: the binding signal (RPM ratio (pull-down/input)) was 0.545.

Take “GATGATTGTTCTCCCAGCTGATGAATTACGGCGATCGAGTAAACAAATTTTCCTAATCTTTCTGTTCAAGCGCCATCTAC”: the binding signal (RPM ratio (pull-down/input)) worked out at 0.513.

For “GATGATTGTTCTCCCAGCTGATGAATTCGGCCGCTCGAGTAAACAAATTTTCCTAATCTTTCTGTTCAAGCGCCATCTAC”, the binding signal (RPM ratio (pull-down/input)) came out at 1.06.

As to “GATGATTGTTCTCCCAGCTGATGAATTAATAGGCTCGAGTAAACAAATTTTCCTAATCTTTCTGTTCAAGCGCCATCTAC”, the binding signal (RPM ratio (pull-down/input)) came to 0.372.

Turning to “GATGATTGTTCTCCCAGCTGATGAATTGGCGGTCTCGAGTAAACAAATTTTCCTAATCTTTCTGTTCAAGCGCCATCTAC”, the binding signal (RPM ratio (pull-down/input)) stood at 0.497.

For “GATGATTGTTCTCCCAGCTGATGAATTCTAGGGCTCGAGTAAACAAATTTTCCTAATCTTTCTGTTCAAGCGCCATCTAC”, the binding signal (RPM ratio (pull-down/input)) was determined as 0.259.

Consider “GATGATTGTTCTCCCAGCTGATGAATTTAACAACTCGAGTAAACAAATTTTCCTAATCTTTCTGTTCAAGCGCCATCTAC”, for which the binding signal (RPM ratio (pull-down/input)) amounted to 0.454.

Regarding “GATGATTGTTCTCCCAGCTGATGAATTGGCCAGGTCGAGTAAACAAATTTTCCTAATCTTTCTGTTCAAGCGCCATCTAC”, the binding signal (RPM ratio (pull-down/input)) is 0.186.

With “GATGATTGTTCTCCCAGCTGATGAATTACAACCTTCGAGTAAACAAATTTTCCTAATCTTTCTGTTCAAGCGCCATCTAC”, the binding signal (RPM ratio (pull-down/input)) amounted to 0.474.

Take “GATGATTGTTCTCCCAGCTGATGAATTCTTTTAGTCGAGTAAACAAATTTTCCTAATCTTTCTGTTCAAGCGCCATCTAC”: the binding signal (RPM ratio (pull-down/input)) worked out at 0.266.

Consider “GATGATTGTTCTCCCAGCTGATGAATTGGTAGGGTCGAGTAAACAAATTTTCCTAATCTTTCTGTTCAAGCGCCATCTAC”, for which the binding signal (RPM ratio (pull-down/input)) came to 0.794.

“GATGATTGTTCTCCCAGCTGATGAATTGGCGCAGTCGAGTAAACAAATTTTCCTAATCTTTCTGTTCAAGCGCCATCTAC”: the binding signal (RPM ratio (pull-down/input)) is 0.577.

As for “GATGATTGTTCTCCCAGCTGATGAATTTCGAGTCTCGAGTAAACAAATTTTCCTAATCTTTCTGTTCAAGCGCCATCTAC”, the binding signal (RPM ratio (pull-down/input)) is 1.07.

On to “GATGATTGTTCTCCCAGCTGATGAATTCTGTCTGTCGAGTAAACAAATTTTCCTAATCTTTCTGTTCAAGCGCCATCTAC”, for which the binding signal (RPM ratio (pull-down/input)) came out at 1.04.
